# Source: ChEMBL document CHEMBL4888484, “Replenishing the malaria drug discovery pipeline: Screening and hit evaluation of the MMV Hit Generation Library 1 (HGL1) against asexual blood stage Plasmodium falciparum ,using a nano luciferase reporter read-out” (2022)
# Values joined by “and” are separate entries in the source; they are usually repeats but may differ in a detail not shown here. Equal values may be shown once. The whole screen tested about 150,000 compounds, of which about 540 (0.36%) showed an effect of 50% or more. The list shows a part of the results.
# Test system: Plasmodium falciparum
# Assay: Primary screen in NF54 nanoGlo assay, in single point, at 2uM, 72h; a lower Z score goes with more inhibition
# Type: functional, Erythrocyte
# Settings: timepoint 72 hour
SMILES,% Inhibition,Z score,% Inhibition (2 µM),Z score (2 µM)
CCC(C(=O)N1CCN(C(C#N)C(C)C)CC1)N1CCCC1=O (centres undefined),-11%,0.89,–,–
Clc1ccc(COc2ccc(CNCc3ccccn3)cc2)cc1,-14%,2.76,–,–
COc1ccc(C(=O)Nc2ccc(C3OC(=O)N(Cc4ccc(F)cc4)C3C(=O)NCC(C)C)cc2)cc1 (centres undefined),-5%,0.69,–,–
CCn1c(-c2nccn2CCO)nc2ccccc21,-10%,2.03,–,–
Cc1ccc(NC(=O)N2CC[C@H](Oc3ncccc3C(=O)N3CCCCC3)C2)c(Cl)c1,-14%,2.29,–,–
Cc1nnc(-c2cc3cc(Oc4ccccc4)ccc3[nH]2)s1,1%,-0.11,–,–
COc1ccc([C@H](CO)N(C)CCCOC(C)C)cc1,-6%,0.52,–,–
CN(Cc1ccccc1)C(=O)N1CCN2C(=O)C(=O)NC[C@H]2C1,-12%,1.18,–,–
CCCc1cc(N[C@@H]2C[C@@H](C(=O)NC)N(C3CCOCC3)C2)nc(C)n1,0%,0.09,–,–
O=C1NC[C@H]2O[C@H](CCOc3cc(-c4ccccc4)ccc3C(=O)N3CCN(Cc4ccc5c(c4)OCO5)C[C@@H]13)CC[C@@H]2O,26%,-2.97,–,–
COc1ccc(NC(=O)Cc2ccc(N(Cc3cccc(F)c3)C(=O)CC(C)C)cc2)cc1,-16%,1.55,–,–
O=C(c1cccnc1)N1CC(c2noc([C@@H]3CCCN3CC3CC3)n2)C1,6%,-0.7,–,–
Cc1ccc(-n2ncc(C#N)c2N(Cc2ccc(F)c(F)c2)Cc2ccc(F)c(F)c2)cc1,-8%,0.94,–,–
Cc1cc(C)n(-c2ncc(NC(=O)COc3ccc(-n4cccn4)nn3)cn2)n1,-6%,1.19,–,–
CC(C)C(=O)N1CCc2cc(S(=O)(=O)N3CCOCC3)ccc21,-17%,1.54,–,–
C[C@@H](CN1CCCCCC1)NCCCc1ccccc1,-5%,0.79,–,–
CC1OCCC1NCc1cc(Cl)c2c(c1)OCO2 (centres undefined),2%,-0.28,–,–
COc1cc(CN(C)Cc2nnn(C(C)(C)C)n2)sn1,-13%,1.17,–,–
O=C1C(=O)N(Cc2ccc3ccccc3c2)c2ccc(Br)cc21,4%,-0.51,–,–
Cc1cccc(C(=O)N[C@H]2CC[C@H](Nc3nccc(-c4ccncc4)n3)C2)n1,-19%,1.75,–,–
Cc1nnc(-c2ccccc2NC(=O)[C@@H]2CC(c3ccccc3)=NO2)o1,-1%,0.13,–,–
Cc1cccc(NC(=O)Cn2c(=O)n(CCc3cccs3)c(=O)c3sccc32)c1C,-3%,0.44,–,–
CC(C)NC(=O)CNC(=O)CN1C(=O)NC2(CCCCCCC2)C1=O,-8%,0.78,–,–
COc1cccc(CN2CCC3(CC2)C[C@H](c2ccccc2)C(=O)N3C)c1,1%,-0.1,–,–
O=C(CN1CCC(c2ncco2)CC1)Nc1cc(F)cc(F)c1,-5%,0.84,–,–
COc1cc(C#N)ccc1Oc1ccc(NC(=O)c2sc(NC(=O)C(C)(C)C)cc2C)cc1,5%,-0.82,–,–

SMILES,% Inhibition,Z score,% Inhibition (2 µM),Z score (2 µM)
COc1cccc(OC2CN(Cc3cccc(F)c3F)C2)c1,-13%,1.49,–,–
COCC[C@]1(NC(=O)c2ccc(F)cc2)CCN(S(=O)(=O)C2CC2)C1,-1%,0.17,–,–
COc1ccccc1[C@H]1CC(=O)Nc2c1c(C)nn2-c1ncccn1,-3%,0.42,–,–
O=C1CC[C@@]2(CCCN(C(=O)Cc3ccc(CO)cc3)C2)CN1CCO,-4%,0.67,–,–
O=C(CN1CCCC1=O)N1CCN(c2ncccn2)CC1,-6%,1.14,–,–
C[C@@H](COCc1ncc[nH]1)C(=O)c1ccc(F)c(F)c1,-8%,1.13,–,–
CN(C)c1ccc(CCC(=O)N2C[C@H]3C[C@H](O)[C@H](O)C[C@H]3C2)cc1,-13%,1.67,–,–
Cc1cc(C(=O)N2CC(N3CCNC3=O)C2)nn1C(F)F,0%,-0.07,–,–
CN(Cc1cnc(C(C)(C)C)s1)C1CCN(S(C)(=O)=O)CC1,3%,-0.43,–,–
CCc1c(C(=O)N2CCN(C)C(=O)C2(C)C)nnn1-c1ccc(OC(C)C)cc1,-9%,1.26,–,–
CC(=O)N1CCN(c2ncccc2CNC(=O)[C@H](O)c2ccc(F)cc2)CC1,-12%,1.46,–,–
CCc1nc(CN(C)c2ncccc2S(=O)(=O)N2CCCCC2)cs1,-1%,0.12,–,–
Cc1cccc(CN2CCC[C@@](O)(CN3CCN(CC4CCC4)CC3)C2=O)c1,2%,-0.38,–,–
COc1cc([C@H]2CC(=O)Nc3nc(N4CCCCC4)sc32)ccc1O,–,–,-10% and -14%,1.25 and 1.66
O=S(=O)(Nc1cc(C(F)(F)F)n[nH]1)c1cc(F)c(F)c(F)c1,-10%,1.29,–,–
Cc1cccc(Cn2ncc(C)c2NC(=O)CCN2CCCCC2=O)c1,-6%,1.13,–,–
CCC1(CN=C(NC)NCc2ccco2)CC1,0%,-0.03,–,–
O=C(c1ccc(F)c(Cl)c1)N1CCN(c2nccn3nc4c(c23)CCCC4)CC1,-8%,1.6,–,–
CCc1ccc(CN2CC[C@]3(C2)CN(C)C(=O)CO3)s1,-7%,0.82,–,–
O=C(c1ccc(N2CCc3ccccc32)s1)N1CCN(c2cccc(Cl)c2)CC1,-17%,2.26,–,–
Cc1nc(CN(C(=O)C(C)C)C2CC2)[nH]c(=O)c1Cc1cccc(C(F)(F)F)c1,1%,-0.11,–,–
CC(C)(C)c1noc(OCCOCC(F)F)n1,-10%,1.43,–,–
CCn1nccc1CNc1nnc(Cc2ccc3ccccc3c2)o1,0%,-0.03,–,–
Cc1cccc2nc(-c3cccs3)c(Nc3ccc4c(c3)OCCO4)n12,0%,-0.07,–,–
CC(C)c1nnc(NCC(C)(C)N2CCCC2)s1,-3%,0.5,–,–
Fc1ccc(-c2noc([C@@H]3CCCN3Cc3ccc4c(c3)OCO4)n2)nc1,12%,-1.38,–,–
